# Test results reported in the supplement of paper PMC8728848.
# The list shows a part of the results.
# B1: LSectin (Mus musculus), Q8BNX1 (protein)
# chain: MNTGEYNKLGSAIEEVSRGQLGRWECYKQRLFFLVLALLVATVLWALILSTLLSSASSKLRVLLSHQDLLRTNASEQKMTLSSLKDDIGACRNCCSVTKAQLQTTLAEFKDIQAKLMEQESILKELQERVTQDLAKASRDRENIRSELFQALEAVKRQNSSCEQCPPSWLPFQGSCYYFSETQATWDTAQSYCGGQGAHLVIVRGLNEQGFLSQHTRGRGYWLGLRAVRHLNKIQGYRWVDGASLNFSHWNSGEPNDSRGHEDCIMMLHSGLWNDAPCTNERDGWICEKRSSCY
# Assays:
# Test in all cases: glycan array binding signal (z-score within array); higher = stronger binding
# Conditions in all cases: glycan notation: IUPAC condensed, linker removed
# [1] = target: Fuc(a1-2)Gal
# Method in brief: (§1)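 Glycan array data came from 3228 arrays in the Consortium for Functional Glycomics database, and only arrays with an available protein sequence were kept. Glycan names were put into IUPAC-condensed notation, and columns mapping to the same glycan were averaged. The binding signal is a within-array Z-score, averaged across arrays of one protein sequence run at different concentrations or buffers and across linkers. A negative Z-score can be read as non-binding.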
# [2] = target: Fuc(a1-2)Gal(b1-3)GalNAc
# Method in brief: as §1
# [3] = target: Fuc(a1-2)Gal(b1-3)GalNAc(a1-3)[Fuc(a1-2)]Gal(b1-4)Glc
# Method in brief: as §1
# [4] = target: Fuc(a1-2)Gal(b1-3)GalNAc(a1-3)[Fuc(a1-2)]Gal(b1-4)GlcNAc
# Method in brief: as §1
# [5] = target: Fuc(a1-2)Gal(b1-3)GalNAc(b1-3)Gal
# Method in brief: as §1
# [6] = target: Fuc(a1-2)Gal(b1-3)GalNAc(b1-3)Gal(a1-4)Gal(b1-4)Glc
# Method in brief: as §1
# [7] = target: Fuc(a1-2)Gal(b1-3)GalNAc(b1-4)[Neu5Ac(a2-3)]Gal(b1-4)Glc
# Method in brief: as §1
# [8] = target: Fuc(a1-2)Gal(b1-3)GlcNAc
# Method in brief: as §1
# [9] = target: Fuc(a1-2)Gal(b1-3)GlcNAc(b1-2)Man(a1-3)[Fuc(a1-2)Gal(b1-3)GlcNAc(b1-2)Man(a1-6)]Man(b1-4)GlcNAc(b1-4)GlcNAc
# Method in brief: as §1
# [10] = target: Fuc(a1-2)Gal(b1-3)GlcNAc(b1-2)Man(a1-3)[Fuc(a1-2)Gal(b1-3)GlcNAc(b1-2)Man(a1-6)]Man(b1-4)GlcNAc(b1-4)[Fuc(a1-6)]GlcNAc
# Method in brief: as §1
# [11] = target: Fuc(a1-2)Gal(b1-3)GlcNAc(b1-3)Gal(b1-4)Glc
# Method in brief: as §1
# [12] = target: Fuc(a1-2)Gal(b1-3)GlcNAc(b1-3)GalNAc
# Method in brief: as §1
# [13] = target: Fuc(a1-2)Gal(b1-3)GlcNAc(b1-3)[Fuc(a1-3)[Gal(b1-4)]GlcNAc(b1-6)]Gal(b1-4)Glc
# Method in brief: as §1
# [14] = target: Fuc(a1-2)Gal(b1-3)GlcNAc(b1-3)[Gal(b1-4)GlcNAc(b1-6)]Gal(b1-4)Glc
# Method in brief: as §1
# [15] = target: Fuc(a1-2)Gal(b1-3)[Fuc(a1-4)]GlcNAc
# Method in brief: as §1
# [16] = target: Fuc(a1-2)Gal(b1-3)[Fuc(a1-4)]GlcNAc(b1-2)Man(a1-3)[Fuc(a1-2)Gal(b1-3)[Fuc(a1-4)]GlcNAc(b1-2)Man(a1-6)]Man(b1-4)GlcNAc(b1-4)GlcNAc
# Method in brief: as §1
# [17] = target: Fuc(a1-2)Gal(b1-3)[Fuc(a1-4)]GlcNAc(b1-3)[Fuc(a1-3)[Gal(b1-4)]GlcNAc(b1-6)]Gal(b1-4)Glc
# Method in brief: as §1
# [18] = target: Fuc(a1-2)Gal(b1-3)[Fuc(a1-4)]GlcNAc(b1-3)[Gal(b1-4)GlcNAc(b1-6)]Gal(b1-4)Glc
# Method in brief: as §1
# [19] = target: Fuc(a1-2)Gal(b1-4)Glc
# Method in brief: as §1
# [20] = target: Fuc(a1-2)Gal(b1-4)Glc6S
# Method in brief: as §1
# [21] = target: Fuc(a1-2)Gal(b1-4)GlcNAc
# Method in brief: as §1
# [22] = target: Fuc(a1-2)Gal(b1-4)GlcNAc(b1-2)Man(a1-3)[Fuc(a1-2)Gal(b1-4)GlcNAc(b1-2)Man(a1-6)]Man(b1-4)GlcNAc(b1-4)GlcNAc
# Method in brief: as §1
# [23] = target: Fuc(a1-2)Gal(b1-4)GlcNAc(b1-2)Man(a1-3)[Fuc(a1-2)Gal(b1-4)GlcNAc(b1-2)Man(a1-6)]Man(b1-4)GlcNAc(b1-4)[Fuc(a1-6)]GlcNAc
# Method in brief: as §1
# [24] = target: Fuc(a1-2)Gal(b1-4)GlcNAc(b1-2)[Fuc(a1-2)Gal(b1-4)GlcNAc(b1-4)]Man(a1-3)[Fuc(a1-2)Gal(b1-4)GlcNAc(b1-2)Man(a1-6)]Man(b1-4)GlcNAc(b1-4)GlcNAc
# Method in brief: as §1
# [25] = target: Fuc(a1-2)Gal(b1-4)GlcNAc(b1-3)Gal(b1-4)GlcNAc
# Method in brief: as §1
# [26] = target: Fuc(a1-2)Gal(b1-4)GlcNAc(b1-3)Gal(b1-4)GlcNAc(b1-3)Gal(b1-4)GlcNAc
# Method in brief: as §1
# [27] = target: Fuc(a1-2)Gal(b1-4)GlcNAc(b1-3)GalNAc
# Method in brief: as §1
# [28] = target: Fuc(a1-2)Gal(b1-4)GlcNAc6S
# Method in brief: as §1
# [29] = target: Fuc(a1-2)Gal(b1-4)[Fuc(a1-3)]GlcNAc
# Method in brief: as §1
# [30] = target: Fuc(a1-2)Gal(b1-4)[Fuc(a1-3)]GlcNAc(b1-2)Man(a1-3)[Fuc(a1-2)Gal(b1-4)[Fuc(a1-3)]GlcNAc(b1-2)Man(a1-6)]Man(b1-4)GlcNAc(b1-4)GlcNAc
# Method in brief: as §1
binder,measurement,setting,value
B1,glycan array binding signal (z-score),[1],-0.138
same,glycan array binding signal (z-score),[2],-0.177
same,glycan array binding signal (z-score),[3],-0.185
same,glycan array binding signal (z-score),[4],-0.194
same,glycan array binding signal (z-score),[5],-0.179
same,glycan array binding signal (z-score),[6],-0.169
same,glycan array binding signal (z-score),[7],-0.184
same,glycan array binding signal (z-score),[8],-0.144
same,glycan array binding signal (z-score),[9],-0.18
same,glycan array binding signal (z-score),[10],-0.184
same,glycan array binding signal (z-score),[11],-0.18
same,glycan array binding signal (z-score),[12],-0.188
same,glycan array binding signal (z-score),[13],-0.187
same,glycan array binding signal (z-score),[14],-0.188
same,glycan array binding signal (z-score),[15],-0.15
same,glycan array binding signal (z-score),[16],-0.176
same,glycan array binding signal (z-score),[17],-0.174
same,glycan array binding signal (z-score),[18],-0.181
same,glycan array binding signal (z-score),[19],0.275
same,glycan array binding signal (z-score),[20],-0.138
same,glycan array binding signal (z-score),[21],0.28
same,glycan array binding signal (z-score),[22],2.71
same,glycan array binding signal (z-score),[23],-0.19
same,glycan array binding signal (z-score),[24],0.645
same,glycan array binding signal (z-score),[25],0.829
same,glycan array binding signal (z-score),[26],0.857
same,glycan array binding signal (z-score),[27],0.092
same,glycan array binding signal (z-score),[28],-0.146
same,glycan array binding signal (z-score),[29],0.063
same,glycan array binding signal (z-score),[30],0.42
